{"source": "paper PMC4336329", "about": "(PLoS ONE, 2015)", "note": "Screen size: about 310,000 compounds; about 2,200 (0.71%) showed an effect of 50% or more. The effect is printed as a negative number. Some of the results follow.", "data": [{"target": "human ether-à-go-go-related gene (hERG) potassium channel (human, UniProt Q12809)", "sequence (Q12809 whole entry, looked up)": "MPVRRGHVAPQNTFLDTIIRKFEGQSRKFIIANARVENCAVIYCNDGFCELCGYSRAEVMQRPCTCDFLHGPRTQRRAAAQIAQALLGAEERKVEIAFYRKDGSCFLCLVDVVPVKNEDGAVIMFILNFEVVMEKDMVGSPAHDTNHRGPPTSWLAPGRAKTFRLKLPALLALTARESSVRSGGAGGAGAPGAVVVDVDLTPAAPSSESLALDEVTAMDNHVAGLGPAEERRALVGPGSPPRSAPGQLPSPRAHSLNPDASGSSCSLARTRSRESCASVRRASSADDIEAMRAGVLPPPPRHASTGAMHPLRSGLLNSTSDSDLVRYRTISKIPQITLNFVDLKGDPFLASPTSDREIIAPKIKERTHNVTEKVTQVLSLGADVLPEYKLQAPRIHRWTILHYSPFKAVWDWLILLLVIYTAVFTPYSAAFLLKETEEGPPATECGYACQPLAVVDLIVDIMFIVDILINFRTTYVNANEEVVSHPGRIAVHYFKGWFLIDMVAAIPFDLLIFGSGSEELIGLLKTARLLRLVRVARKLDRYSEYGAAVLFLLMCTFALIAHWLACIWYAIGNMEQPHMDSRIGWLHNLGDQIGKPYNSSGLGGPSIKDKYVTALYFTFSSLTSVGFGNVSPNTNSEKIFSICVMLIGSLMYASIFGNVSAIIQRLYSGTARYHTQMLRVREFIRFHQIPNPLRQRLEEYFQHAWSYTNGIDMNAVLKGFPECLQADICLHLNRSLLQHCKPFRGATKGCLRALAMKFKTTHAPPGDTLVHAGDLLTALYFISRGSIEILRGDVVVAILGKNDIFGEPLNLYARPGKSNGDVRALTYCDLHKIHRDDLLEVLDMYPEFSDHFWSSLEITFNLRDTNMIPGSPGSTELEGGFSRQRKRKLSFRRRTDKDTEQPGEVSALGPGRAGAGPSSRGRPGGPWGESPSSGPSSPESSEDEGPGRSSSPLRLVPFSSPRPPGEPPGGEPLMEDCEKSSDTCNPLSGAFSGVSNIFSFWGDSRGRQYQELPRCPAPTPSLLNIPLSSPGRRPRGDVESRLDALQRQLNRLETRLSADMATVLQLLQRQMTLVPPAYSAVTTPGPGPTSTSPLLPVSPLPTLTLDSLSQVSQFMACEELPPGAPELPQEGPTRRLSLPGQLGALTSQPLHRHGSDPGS", "assay": "primary screen, population patch clamp on CHO cells stably expressing hERG", "units": {"hERG current change (%, negative = inhibition) at 1uM": "%"}, "values": [{"smiles": "COc1ccccc1Nc1ncnc2sccc12", "hERG current change (%, negative = inhibition) at 1uM": 14.2}, {"smiles": "CC(C)C(=O)NCCc1nc2ccccc2n1CCCOc1ccc(Cl)cc1", "hERG current change (%, negative = inhibition) at 1uM": -1.93}, {"smiles": "NC(=O)c1ncn([C@@H]2O[C@H](CO)[C@@H](O)[C@H]2O)n1", "hERG current change (%, negative = inhibition) at 1uM": 25.8}, {"smiles": "COc1ccc(CCCNC(=O)C2CCC(=O)N(CCCN3CCCC3=O)C2)cc1", "note": "(stereo not drawn)", "hERG current change (%, negative = inhibition) at 1uM": 14.6}, {"smiles": "O=C(CN(c1cccc(C(F)(F)F)c1)S(=O)(=O)c1ccc(Cl)c([N+](=O)[O-])c1)NCc1ccccc1Cl", "hERG current change (%, negative = inhibition) at 1uM": -1.08}, {"smiles": "COc1ccc(NC(=O)CCN2C(=O)[C@@H]3[C@H](C2=O)[C@H]2C=C[C@@H]3C2)cc1", "hERG current change (%, negative = inhibition) at 1uM": 11.1}, {"smiles": "CC(C)(C)NC(=O)C1CC(=O)OC12CCOC(C)(C)C2", "note": "(stereo not drawn)", "hERG current change (%, negative = inhibition) at 1uM": 17.1}, {"smiles": "O=C(NCC1CCCO1)C1CC(c2ccc(Cl)c(Cl)c2)=NO1", "note": "(stereo not drawn)", "hERG current change (%, negative = inhibition) at 1uM": 4.3}, {"smiles": "Cc1cc(C(=O)OCC(=O)N2CCCC2)c2ccccc2n1", "hERG current change (%, negative = inhibition) at 1uM": 4.28}, {"smiles": "O=C(CSc1n[nH]c(-c2ccncc2)n1)c1ccccc1", "hERG current change (%, negative = inhibition) at 1uM": 12.9}, {"smiles": "COCCCn1c(=O)c2ccccc2n(CC(=O)NC2CCCCC2)c1=O", "hERG current change (%, negative = inhibition) at 1uM": 14.1}, {"smiles": "CCN1CCN(c2ccc(S(=O)(=O)N3CCOCC3)cc2NC(=O)CC(C)C)CC1", "hERG current change (%, negative = inhibition) at 1uM": 5.72}, {"smiles": "O=C(N/N=C(\\CC(=O)c1cccs1)C(F)(F)F)c1ccncc1", "hERG current change (%, negative = inhibition) at 1uM": 0.112}, {"smiles": "COc1cccc(CN2CCNC(=O)C2CC(=O)NC2CCCC2)c1OC", "note": "(stereo not drawn)", "hERG current change (%, negative = inhibition) at 1uM": 6.62}, {"smiles": "CC1CCN(C(=O)CSc2nc(C3CC3)nc3ccccc23)CC1", "hERG current change (%, negative = inhibition) at 1uM": 4.72}, {"smiles": "CCOC(=O)C1CCCN(c2c(NCCCN(CC)c3ccccc3)c(=O)c2=O)C1", "note": "(stereo not drawn)", "hERG current change (%, negative = inhibition) at 1uM": -9.35}, {"smiles": "O=C(O)CCc1ccc(-c2ccccc2)n1Cc1ccco1", "hERG current change (%, negative = inhibition) at 1uM": 1.58}, {"smiles": "CC(C)CN(CC(C)C)c1ccc(/C=N/n2cnnc2)cc1[N+](=O)[O-]", "hERG current change (%, negative = inhibition) at 1uM": 4.48}, {"smiles": "CCOc1ccc(CCNC(=O)COC(=O)CCC(=O)c2cccs2)cc1OCC", "hERG current change (%, negative = inhibition) at 1uM": -2.59}, {"smiles": "O=C1Cc2ccccc2Sc2ccc(Cl)cc21", "hERG current change (%, negative = inhibition) at 1uM": 14.5}, {"smiles": "O=C1N[C@@H](Cc2ccccc2)C(=O)N2[C@H]1C[C@]1(Br)c3ccccc3N(S(=O)(=O)c3ccc(F)cc3)[C@H]21", "hERG current change (%, negative = inhibition) at 1uM": 14.2}, {"smiles": "COCC1=C(C(=O)OC)C(c2ccco2)n2ncnc2N1", "note": "(stereo not drawn)", "hERG current change (%, negative = inhibition) at 1uM": 18.2}, {"smiles": "CSCCC(=O)NC1CC(C)(C)Cc2c1cnn2-c1ccccc1C", "note": "(stereo not drawn)", "hERG current change (%, negative = inhibition) at 1uM": 10.8}, {"smiles": "O=C(Nc1ccccc1-c1ccccc1)C(c1ccccc1)c1ccccc1", "hERG current change (%, negative = inhibition) at 1uM": 18.6}, {"smiles": "Cl.O=C(CS(=O)CC(=O)Nc1cnc2ccccc2c1)Nc1ccc(Cl)cc1", "note": "(stereo not drawn)", "hERG current change (%, negative = inhibition) at 1uM": 2.52}, {"smiles": "CCOc1ccc2nc(NCCO)[nH]c2c1", "hERG current change (%, negative = inhibition) at 1uM": 10.9}, {"smiles": "O=C(c1ccc(Br)o1)N1CCN(c2ccccc2F)CC1", "hERG current change (%, negative = inhibition) at 1uM": 5.97}, {"smiles": "COc1ccc(/C=N/n2cnc3scc(-c4cccs4)c3c2=O)cc1OC", "hERG current change (%, negative = inhibition) at 1uM": 5.91}, {"smiles": "Cc1cc(C)nc(S/C=C/C(=O)c2ccccc2F)n1", "hERG current change (%, negative = inhibition) at 1uM": 5.68}, {"smiles": "COc1ccc(CN(CC2CCC(C(=O)O)CC2)C(=S)Nc2cc(C)cc(C)c2)cc1", "note": "(stereo not drawn)", "hERG current change (%, negative = inhibition) at 1uM": 16.9}, {"smiles": "COc1ccccc1C(CC(=O)Nc1ccc(C)c(C)c1)c1ccc(OC(C)C)cc1", "note": "(stereo not drawn)", "hERG current change (%, negative = inhibition) at 1uM": 8.24}, {"smiles": "CN(C)S(=O)(=O)c1ccc(N2CCCC2)c(C(=O)NNC(=O)COc2ccccc2Cl)c1", "hERG current change (%, negative = inhibition) at 1uM": -6.2}, {"smiles": "CCCN1Cc2cccc(C(=O)NCc3ccccc3)c2C1=O", "hERG current change (%, negative = inhibition) at 1uM": -4.44}, {"smiles": "COc1ccc(NC(=S)N2C3CCC2CC(NC(=O)NC24CC5CC(CC(C5)C2)C4)C3)c(OC)c1", "note": "(stereo not drawn)", "hERG current change (%, negative = inhibition) at 1uM": 17.3}, {"smiles": "C=C(C)CN(CC)Cc1c(C(=O)N(C)CCCC)nc2ccccn12", "hERG current change (%, negative = inhibition) at 1uM": -9.75}, {"smiles": "c1ccc2c(c1)CCc1ccccc1C2=C1CCNCC1", "hERG current change (%, negative = inhibition) at 1uM": 10.5}, {"smiles": "COc1cccc(CNc2nc3ccc(C)cc3n3cnnc23)c1", "hERG current change (%, negative = inhibition) at 1uM": 10.5}, {"smiles": "N#CCCN(C(=O)COC(=O)c1ccc2c(c1)OCO2)c1ccccc1", "hERG current change (%, negative = inhibition) at 1uM": 0.0284}, {"smiles": "Cc1cccc(C)c1NC(=O)CN(C)C(=O)CN1C(=O)NC(C)(C)C1=O", "hERG current change (%, negative = inhibition) at 1uM": 12.1}, {"smiles": "Cc1cccc(C)c1NC(=O)N1CC=CCC1", "hERG current change (%, negative = inhibition) at 1uM": 12.7}, {"smiles": "COCc1c(C(=O)N/N=C\\c2cccnc2)nnn1-c1nonc1N", "hERG current change (%, negative = inhibition) at 1uM": 9.27}, {"smiles": "CN1CC(=O)N/C1=N\\C(=O)Nc1ccc2c(c1)N(C)C(=O)CS2", "hERG current change (%, negative = inhibition) at 1uM": -1.82}, {"smiles": "COc1cccc(CNCCc2c[nH]c3ccccc23)c1OCc1ccccc1F.Cl", "hERG current change (%, negative = inhibition) at 1uM": -11.1}, {"smiles": "O=C(CCCNS(=O)(=O)c1cccs1)N1CCc2ccccc2C1", "hERG current change (%, negative = inhibition) at 1uM": 1.14}, {"smiles": "Cc1ccc(C)c(-n2c(SCC(=O)Nc3nonc3C)nnc2-c2ccoc2C)c1", "hERG current change (%, negative = inhibition) at 1uM": 9.3}]}]}
